± gives the standard deviation of the averaged measurements. Some of the results follow.

This test concerns PfAP2-EXP AP2 domain (GST-tagged). The experiment in a line: gcPBM binding intensity (ln(normalized median fluorescence intensity)); higher = stronger DNA binding. In outline:
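Plasmodium falciparum DNA-binding domains carrying a GST tag were expressed in E. coli and applied for 1 h, at about 25 μg on average, to an Agilent 4 × 180k array. The array held primer-extended double-stranded 36-bp intergenic genomic probes together with negative controls, and binding took place in 1× PBS with 1% milk, 0.2 mg/ml BSA, 0.5% salmon testes DNA and 0.03% Triton X-100. An Alexa488 anti-GST antibody detected bound protein, and the array was scanned at 488 nm. Binding intensity is taken as the highest Masliner-normalised natural-log median intensity across replicate spots of either probe orientation.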
On to “ATACATATATATATGTGTACATATTATATATACATA [XGTACX_site8420]”, for which the “gcPBM binding intensity (ln)” value was 8.36 ± 0.3.
On to “TTTCCATATATAGAACGTACAAAGATCTTTGTTACT [XGTACX_site8972]”, for which the “gcPBM binding intensity (ln)” value is 8.66 ± 0.51.
For the sequence “TTTTTTTTTATGTGCACACAAAAGATGCTTATATTT [CACACA_site2348]”, the “gcPBM binding intensity (ln)” value stood at 8.89 ± 0.085.
For “TGCATATACATATGTAGTACAATAATTTGAAAAAAA [XGTACX_site5239]” the value was 8.43 ± 0.27; for “TAGCTTTTGCCTTTTTTTAAAAAAAAATAAATAAAT [TGCATGCA_negctrl_site242]”, 8.19 ± 0.53.
In the case of “TATATATATTTATACACACAAACATAATACTACTTA [CACACA_site2022]”, the “gcPBM binding intensity (ln)” value turned out to be 8.43 ± 0.33.
In the case of “TATATATGGTATAATTGTACTAACGCCAACTATACC [XGTACX_site5853]”, the “gcPBM binding intensity (ln)” value came to 8.59 ± 0.44.
As for “ATATATATATATATAAAGTGAAGTATGAGGGAAATA [XGTACX_negctrl_site497]”, the figure is 10.1 ± 0.3.
For “TTATTATTTTATAACACACACATATAGATTATAGCT [CACACA_site6787]” the value was 8.38 ± 0.4; for “AAAAATTAAATATAAAGTACAAAATTAAAATCTTAA [XGTACX_site931]”, 8.32 ± 0.33; for “TATGTATGTATTAATGCGCACACAAAAAATAACAAT [CACACA_site8551]”, 9.03 ± 0.36.
For “TTTTGTATTTATGGATGTACATAATATGTTTTAAAC [XGTACX_site3278]” the value was 8.66 ± 0.37.
As to “TTTCGTAACTATTTGTGTACATATATATATATATAT [XGTACX_site2920]”, the “gcPBM binding intensity (ln)” value worked out at 10.3 ± 0.29.
For “ATTTTCTTTTCCATAGTGCAATATAATTATCCATCA [GTGCAC_site9547]” the value was 9.03 ± 0.37.
For “ATAAATATATGAAATATACACACTTCTTTGGTATTA [CACACA_site456]” the value was 8.28 ± 0.35.
For “GGAACCATCCAAAAAAAAAAAAAAAATAATAATAAT [CACACA_negctrl_site383]” the value was 8.09 ± 0.46; for “ACATGTACAGAAATTTATATATATATATATATATAT [CACACA_negctrl_site1584]”, 10.3 ± 0.33; for “ATTATTATGTATTGCCGTACACATATTATCACAGAA [XGTACX_site3740]”, 8.65 ± 0.37.
In the case of “TATAAATAAACATTTACACACTCTTATAATAAATAT [CACACA_site1679]”, the “gcPBM binding intensity (ln)” value is 8.09 ± 0.36.
As for “TCTTCATATATAATTGTACACACAAAAACGACATTG [CACACA_site8645]”, the figure is 8.92 ± 0.38; as for “TATTATAATTAATATACACACGCTTATATATATATA [CACACA_site75]”, 9.93 ± 0.3.
For “CTCACAATACTTACATGTACATATTATATATATAAA [XGTACX_site1880]” the value was 9.11 ± 0.38.
As for GTTGAAATAAAATTAGTGCATATATAAATATATATA, the figure is 8.26 ± 0.11.
Consider “AACTAATAGTATATTACATGCAAAAGTAAAAGTAAA [TGCATGCA_site411]”, for which the “gcPBM binding intensity (ln)” value was found to be 9.32 ± 0.2.
For “ACTGAAAAAAGAAATACACACATTCTGGATCAGATA [CACACA_site7760]”, the “gcPBM binding intensity (ln)” value was found to be 8.57 ± 0.43.
For “TCATTCTTGTGTTTATGTACACATATTTATATTGTA [XGTACX_site710]” the value was 8.6 ± 0.3; for “TTATCATTTTTGGAATGTACTTACATTAAATATTTA [XGTACX_site4034]”, 8.4 ± 0.45; for “TATATGCAAAATGTCACACATGTGATAAATACATAT [CACACA_site4302]”, 8.72 ± 0.36.
As for “AGTACATTATAGAATACACACCTATACATTTATATA [CACACA_site6391]”, the figure is 8.49 ± 0.41.
For “CCCAGGAATATAAAATGTACATAAAAAATACAAATT [XGTACX_site1708]” the value was 9.26 ± 0.72.
As for “ATTTTATTTTTTCACACACACATATATATATATATA [CACACA_site3334]”, the “gcPBM binding intensity (ln)” value was 10.2 ± 0.32.
For “TAAGCACAAGCACAAGCACACATTTATATATATATA [CACACA_site883]” the value was 9.85 ± 0.4; for “TTTTTTTTTTTTGGATGTACTTAATGAAAATGTTAC [XGTACX_site8980]”, 8.19 ± 0.35; for “ATAATAATATAAAAATGTACATATATTTATAATTGT [XGTACX_site3429]”, 8.4 ± 0.34.
For “TATTTGTGAAGAAATTGTACTCATATCTACATTTAT [XGTACX_site2245]”, the “gcPBM binding intensity (ln)” value was determined as 8.35 ± 0.35.
As for “TCTTTGTATATATGTTCATTTGTAATATATATTCAT [TGCATGCA_negctrl_site467]”, the figure is 8.57 ± 0.39; as for “TGATTATTTTATATTTGTACACATATCATATAAAAA [XGTACX_site5868]”, 8.59 ± 0.25.
As for “ATGCAAACTAAAAGACGTACAGAAAAGTATCATACT [XGTACX_site8766]”, the figure is 8.87 ± 0.4; as for “ACGTTTTTGAGTAGTACACACACAATAAGGATGGAT [CACACA_site9044]”, 8.96 ± 0.36; as for “ACATAATATTGAAGAAGTACAAATTTTATTTATTAT [XGTACX_site4113]”, 8.28 ± 0.27.
As for “TCATTATTATATAATTGTACATAATAATTATATCCA [XGTACX_site1801]”, the figure is 8.33 ± 0.4.
On to “CCTCATATTATAGACACACACAAAAAAAATAAAAAA [CACACA_site180]”, for which the “gcPBM binding intensity (ln)” value stood at 8.45 ± 0.57.
For “AATATAATATATATTAGTACATATATATATATATAT [XGTACX_site870]” the value was 10.1 ± 0.29.
As for “ATGTATGTGTATATATGTACATAATATATATCTTTT [XGTACX_site8666]”, the figure is 8.65 ± 0.32.

(Values after the supplement of paper PMC11417369.)
